# Measurements taken from the supplement of paper PMC11369174, “Proteome-scale characterisation of motif-based interactome rewiring by disease mutations” (Molecular Systems Biology, 2024).
# The other results are listed elsewhere or left out. Values come from read counts of a selection and are noisy.
# T1: ZMYND11_coiled-coil-MYND__Q15326_480_602
# T1 chain: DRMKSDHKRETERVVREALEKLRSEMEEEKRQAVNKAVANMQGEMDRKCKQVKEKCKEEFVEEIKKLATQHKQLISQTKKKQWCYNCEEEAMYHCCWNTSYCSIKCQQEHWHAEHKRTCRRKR
# T2: VCL_Vinc__P18206_1_258
# T2 chain: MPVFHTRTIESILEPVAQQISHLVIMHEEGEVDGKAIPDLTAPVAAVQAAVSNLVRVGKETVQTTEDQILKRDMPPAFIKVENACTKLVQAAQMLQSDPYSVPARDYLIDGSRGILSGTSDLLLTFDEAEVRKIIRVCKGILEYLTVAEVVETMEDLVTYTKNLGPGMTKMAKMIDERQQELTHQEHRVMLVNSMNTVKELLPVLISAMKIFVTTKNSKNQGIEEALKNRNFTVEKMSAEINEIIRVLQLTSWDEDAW
# Legend:
# Test in all cases: mean normalised NGS count of phage-displayed peptide after selection on bait (% of reads); baits are purified protein domains named by gene / domain / UniProt id / residues; peptides come from disordered regions of human proteins; higher = stronger enrichment / binding
# [1] = target: T1, ZMYND11_coiled-coil-MYND__Q15326_480_602
# [2] = target: WDR5_WD_1234567_P61964_21_334
# VCL_Vinc__P18206_1_258 = target: T2, VCL_Vinc__P18206_1_258
# [3] = replicate selections in which the peptide was seen: 3
# [4] = replicate selections in which the peptide was seen: 6
# [5] = replicate selections in which the peptide was seen: 4
# [6] = replicate selections in which the peptide was seen: 5
# [7] = replicate selections in which the peptide was seen: 2
binder,measurement,setting,value
TIPQLTYDGHPASSPL [PIAS1 93-108 wt],mean normalised NGS count,[1]; [3],0.0111
EELAYDRMPTLERGRQ [MLC1 8-23 wt],mean normalised NGS count,[1]; [4],0.1
NVAFGQELDPPWLERV [ABCC6 710-725 wt],mean normalised NGS count,[1]; [4],8.35
ASAAGYEATMPTLPQN [PINK1 166-181 mut Q9BXM7.V170G],mean normalised NGS count,[1]; [3],0.0321
AAGQPPHLTSAQDHDT [CDT1 104-119 mut Q9H211.Q117H],mean normalised NGS count,[1]; [5],0.296
ESTGLGLLRASIGYFL [WFS1 550-565 wt],mean normalised NGS count,[2]; [5],1.09
PPNLISESAIPTSLGA [CREBBP 542-557 mut Q92793.L551I],mean normalised NGS count,[1]; [4],31.7
SDKSSDSPPILEAIRT [DNMT3B 28-43 mut Q9UBC3.Q30K],mean normalised NGS count,[1]; [4],0.584
PPNLISESALPTSLGA [CREBBP 542-557 wt],mean normalised NGS count,[1]; [4],0.698
PDAPPPPNIVDVRHDS [TTN 21103-21118 wt],mean normalised NGS count,[1]; [5],12.2
PTSKGVLSNLVMISRG [BRCA2 773-788 mut P51587.D777G],mean normalised NGS count,[2]; [6],4.19
ASFLFDVLSTAYVALS [ABCA4 1781-1796 mut P78363.P1788L],mean normalised NGS count,[2]; [7],3.38
ALEAKIAQLEEQLDNE [MYH9 1811-1826 wt],mean normalised NGS count,[2]; [7],0.159
FLSRLPSPPPVSPIAT [BRCA2 3273-3288 mut P51587.L3279S],mean normalised NGS count,[2]; [3],0.083
TIPQLTYDGHPASLPL [PIAS1 93-108 mut O75925.S106L],mean normalised NGS count,[1]; [3],0.025
PTSKDVLSNLVMISRG [BRCA2 773-788 wt],mean normalised NGS count,[2]; [5],2.05
PPHLTSAQDHDTISEL [CDT1 108-123 mut Q9H211.Q117H],mean normalised NGS count,[1]; [5],0.0171
ASPAVYEATMPTLPQN [PINK1 166-181 mut Q9BXM7.A168P],mean normalised NGS count,[1]; [3],0.315
VYIDRVRSVETENAGL [LMNA 44-59 mut P02545.L52V],mean normalised NGS count,[2]; [7],8.02
WEQAISNDPELLEALY [MYOZ2 152-167 wt],mean normalised NGS count,VCL_Vinc__P18206_1_258; [3],0.374
PASKDVLSNLVMISRG [BRCA2 773-788 mut P51587.T774A],mean normalised NGS count,[2]; [3],0.174
MATRGGAGMAMAVWSL [TMEM67 1-16 mut Q5HYA8.V9M],mean normalised NGS count,[2]; [7],0.0679
NVAFGQELGPPWLERV [ABCC6 710-725 mut O95255.D718G],mean normalised NGS count,[1]; [4],14
EPPQIESFYPPLDEPS [NBN 189-204 mut O60934.Q189E],mean normalised NGS count,[1]; [7],0.00951
LAPNLIDNRSWPATTT [BRCA2 553-568 mut P51587.G561R],mean normalised NGS count,[1]; [7],0.00407
MEATRTRQHLGATGGP [CLN6 1-16 mut Q9NWW5.R6T],mean normalised NGS count,[2]; [7],0.126
EVAIKLEAVKAKHPQL [CSNK1E 34-49 mut P48730.T44A],mean normalised NGS count,[2]; [7],0.875
GLLEAAARALVGALFA [PLP1 2-17 mut P60201.P15L],mean normalised NGS count,VCL_Vinc__P18206_1_258; [7],16.4
SDQSSDSPPILEAIRT [DNMT3B 28-43 wt],mean normalised NGS count,[1]; [4],6.53
PTSKDVLSNLGMISRG [BRCA2 773-788 mut P51587.V783G],mean normalised NGS count,[2]; [3],0.871
EELAYDRMPTLERGQQ [MLC1 8-23 mut Q15049.R22Q],mean normalised NGS count,[1]; [4],6.61
TDGIIPILEKLAPSED [ATF7IP 432-447 mut Q6VMQ6.E434G],mean normalised NGS count,[1]; [7],0.0055
TDQQPPNLISESALPT [CREBBP 538-553 wt],mean normalised NGS count,[1]; [4],0.434
TDQQPPNLISESAIPT [CREBBP 538-553 mut Q92793.L551I],mean normalised NGS count,[1]; [6],12.2
VLPNAVLPPSLDHVYV [KMT2B 1526-1541 mut Q9UMN6.A1541V],mean normalised NGS count,[1]; [3],0.031
YDRMPTLERGRQDPAS [MLC1 12-27 wt],mean normalised NGS count,[1]; [4],0.0783
TLLNIPIKRTMIQSPS [DSP 974-989 wt],mean normalised NGS count,[2]; [7],0.111
HIPDLSSFTMPLLDGD [PRKAG2 36-51 mut Q9UGJ0.A44T],mean normalised NGS count,[1]; [3],0.00653
WGWKLRWTVALLPAAA [LDLR 4-19 mut P01130.L16P],mean normalised NGS count,[2]; [7],0.41
YDRMPTLERGQQDPAS [MLC1 12-27 mut Q15049.R22Q],mean normalised NGS count,[1]; [4],0.534
IRLLGAYLFIISRVQG [BMPR1A 8-23 wt],mean normalised NGS count,[2]; [7],0.0592
MGLLEAAARALVGALF [PLP1 1-16 mut P60201.P15L],mean normalised NGS count,VCL_Vinc__P18206_1_258; [7],25.5
MPSLQHSTPPGMTPPQ [CREBBP 866-881 mut Q92793.T872S],mean normalised NGS count,[1]; [7],0.0056
MPSLQHTTPPGMTPPQ [CREBBP 866-881 wt],mean normalised NGS count,[1]; [7],0.0113
PPASTAAGMPSLQHST [CREBBP 858-873 mut Q92793.T872S],mean normalised NGS count,[1]; [3],0.0571
KEDSLAPNLIDNRSWP [BRCA2 549-564 mut P51587.G561R],mean normalised NGS count,[1]; [7],0.0262
PPHLTSAQDQDTISEL [CDT1 108-123 wt],mean normalised NGS count,[1]; [4],0.162
EVAIKLEAVKAKHPQL [CSNK1D 34-49 mut P48730.T44A],mean normalised NGS count,[2]; [7],0.875
VTRNDVAPTLMSVPQY [CDH1 782-797 mut P12830.R796Q],mean normalised NGS count,[1]; [3],0.0129
DQIQQPLTNQVMPDIV [DYRK1A 60-75 wt],mean normalised NGS count,[1]; [3],0.0844
